# In the supplement of paper PMC8728848:
# Some of the results follow.
# B1: HFR-1 (Triticum aestivum) (protein)
# chain: MSPQSFTLETTTTTPAAKGSDPSYFQSAPACHEMIQHKELLLHLYAYQNVQKTPDANQAVIVESKRPECFGILAANDWTVYDGPAHNANLVAHAQGLHLGASMAKENWFICFNMVFVNQRFTGSSFKVMGDFQGTAHNGEWAIVGGTGEFAYAQGVIAFKKTQQSERNARMELHVRAMCLSFLRPLLSLGDGSAVAKIGPWGKMSGELLDIPSTPQRLERITIRHGVVIDSLAFSFIDKAGEPYNVGPWGGRRGDNKDTIELAPSEIVTEVSGTVGIFAEDNVEYNAIASLTITTNHRPYGPFGETQSTPFSVPVQDNNNIVGFFACAGKYVEALGVYVRSPVST
# Legend:
# Experiment in all cases: glycan array binding signal (z-score within array); higher = stronger binding
# Settings in all cases: glycan notation: IUPAC condensed, linker removed
# Gal3S(b1-4)GlcNAc6S = biological target: Gal3S(b1-4)GlcNAc6S
# In short: (§1)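 From the Consortium for Functional Glycomics database, 3228 arrays were curated, keeping only those whose protein sequence was available. Binding is given as a within-array Z-score averaged across arrays sharing a protein sequence and across linkers. Negative Z-scores can be read as non-binding.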
# [1] = biological target: Gal3S(b1-4)[Fuc(a1-3)]Glc
# In short: as §1
# Gal3S4S(b1-4)GlcNAc = biological target: Gal3S4S(b1-4)GlcNAc
# In short: as §1
# Gal3S6S(b1-4)GlcNAc = biological target: Gal3S6S(b1-4)GlcNAc
# In short: as §1
# Gal3S6S(b1-4)GlcNAc6S = biological target: Gal3S6S(b1-4)GlcNAc6S
# In short: as §1
# Gal4S(b1-4)GlcNAc = biological target: Gal4S(b1-4)GlcNAc
# In short: as §1
# Gal4S6S(b1-4)GlcNAc = biological target: Gal4S6S(b1-4)GlcNAc
# In short: as §1
# Gal6S(b1-4)Glc = biological target: Gal6S(b1-4)Glc
# In short: as §1
# Gal6S(b1-4)Glc6S = biological target: Gal6S(b1-4)Glc6S
# In short: as §1
# Gal6S(b1-4)GlcNAc = biological target: Gal6S(b1-4)GlcNAc
# In short: as §1
# Gal6S(b1-4)GlcNAc6S = biological target: Gal6S(b1-4)GlcNAc6S
# In short: as §1
# GalNAc(a1-3)Gal = biological target: GalNAc(a1-3)Gal
# In short: as §1
# GalNAc(a1-3)GalNAc = biological target: GalNAc(a1-3)GalNAc
# In short: as §1
# GalNAc(b1-3)Gal = biological target: GalNAc(b1-3)Gal
# In short: as §1
# [2] = biological target: GalNAc(b1-3)Gal(a1-4)Gal(b1-4)GlcNAc
# In short: as §1
# GalNAc(b1-3)GalNAc = biological target: GalNAc(b1-3)GalNAc
# In short: as §1
# GalNAc(b1-4)GlcNAc = biological target: GalNAc(b1-4)GlcNAc
# In short: as §1
# Glc(a1-4)Glc = biological target: Glc(a1-4)Glc
# In short: as §1
# Glc(a1-6)Glc(a1-6)Glc = biological target: Glc(a1-6)Glc(a1-6)Glc
# In short: as §1
# Glc(b1-4)Glc = biological target: Glc(b1-4)Glc
# In short: as §1
# Glc(b1-6)Glc = biological target: Glc(b1-6)Glc
# In short: as §1
# GlcA(b1-3)Gal = biological target: GlcA(b1-3)Gal
# In short: as §1
# GlcA(b1-3)GlcNAc = biological target: GlcA(b1-3)GlcNAc
# In short: as §1
# GlcA(b1-6)Gal = biological target: GlcA(b1-6)Gal
# In short: as §1
# [3] = biological target: GlcNAc(a1-3)Gal(b1-4)GlcNAc
# In short: as §1
# [4] = biological target: GlcNAc(a1-6)Gal(b1-4)GlcNAc
# In short: as §1
# [5] = biological target: GlcNAc(b1-2)Gal(b1-3)GalNAc
# In short: as §1
# [6] = biological target: GlcNAc(b1-2)Man(a1-3)[GlcNAc(b1-2)Man(a1-6)]Man(b1-4)GlcNAc(b1-4)GlcNAc
# In short: as §1
# GlcNAc(b1-3)Gal = biological target: GlcNAc(b1-3)Gal
# In short: as §1
# [7] = biological target: GlcNAc(b1-3)Gal(b1-3)GalNAc
# In short: as §1
# GlcNAc(b1-3)Gal(b1-4)Glc = biological target: GlcNAc(b1-3)Gal(b1-4)Glc
# In short: as §1
# [8] = biological target: GlcNAc(b1-3)Gal(b1-4)GlcNAc
# In short: as §1
# [9] = biological target: GlcNAc(b1-3)Gal(b1-4)GlcNAc(b1-3)Gal(b1-4)GlcNAc
# In short: as §1
# GlcNAc(b1-3)GalNAc = biological target: GlcNAc(b1-3)GalNAc
# In short: as §1
# GlcNAc(b1-3)Man = biological target: GlcNAc(b1-3)Man
# In short: as §1
# [10] = biological target: GlcNAc(b1-3)[GlcNAc(b1-4)][GlcNAc(b1-6)]GlcNAc
# In short: as §1
# [11] = biological target: GlcNAc(b1-3)[GlcNAc(b1-6)]Gal(b1-4)GlcNAc
# In short: as §1
binder,measurement,setting,value
B1,glycan array binding signal (z-score),Gal3S(b1-4)GlcNAc6S,-0.158
same,glycan array binding signal (z-score),[1],-0.208
same,glycan array binding signal (z-score),Gal3S4S(b1-4)GlcNAc,-0.193
same,glycan array binding signal (z-score),Gal3S6S(b1-4)GlcNAc,-0.179
same,glycan array binding signal (z-score),Gal3S6S(b1-4)GlcNAc6S,-0.18
same,glycan array binding signal (z-score),Gal4S(b1-4)GlcNAc,-0.201
same,glycan array binding signal (z-score),Gal4S6S(b1-4)GlcNAc,-0.189
same,glycan array binding signal (z-score),Gal6S(b1-4)Glc,-0.151
same,glycan array binding signal (z-score),Gal6S(b1-4)Glc6S,-0.151
same,glycan array binding signal (z-score),Gal6S(b1-4)GlcNAc,-0.201
same,glycan array binding signal (z-score),Gal6S(b1-4)GlcNAc6S,-0.151
same,glycan array binding signal (z-score),GalNAc(a1-3)Gal,-0.051
same,glycan array binding signal (z-score),GalNAc(a1-3)GalNAc,-0.194
same,glycan array binding signal (z-score),GalNAc(b1-3)Gal,-0.024
same,glycan array binding signal (z-score),[2],-0.153
same,glycan array binding signal (z-score),GalNAc(b1-3)GalNAc,-0.213
same,glycan array binding signal (z-score),GalNAc(b1-4)GlcNAc,-0.002
same,glycan array binding signal (z-score),Glc(a1-4)Glc,-0.068
same,glycan array binding signal (z-score),Glc(a1-6)Glc(a1-6)Glc,0.404
same,glycan array binding signal (z-score),Glc(b1-4)Glc,-0.108
same,glycan array binding signal (z-score),Glc(b1-6)Glc,0.094
same,glycan array binding signal (z-score),GlcA(b1-3)Gal,0.146
same,glycan array binding signal (z-score),GlcA(b1-3)GlcNAc,0.222
same,glycan array binding signal (z-score),GlcA(b1-6)Gal,-0.13
same,glycan array binding signal (z-score),[3],-0.147
same,glycan array binding signal (z-score),[4],-0.191
same,glycan array binding signal (z-score),[5],-0.212
same,glycan array binding signal (z-score),[6],-0.058
same,glycan array binding signal (z-score),GlcNAc(b1-3)Gal,-0.205
same,glycan array binding signal (z-score),[7],-0.175
same,glycan array binding signal (z-score),GlcNAc(b1-3)Gal(b1-4)Glc,-0.105
same,glycan array binding signal (z-score),[8],-0.216
same,glycan array binding signal (z-score),[9],-0.218
same,glycan array binding signal (z-score),GlcNAc(b1-3)GalNAc,-0.21
same,glycan array binding signal (z-score),GlcNAc(b1-3)Man,-0.093
same,glycan array binding signal (z-score),[10],-0.201
same,glycan array binding signal (z-score),[11],-0.211
